# Laboratory results as given in the supplement of paper PMC9135407.
# “And” between values parts separate entries of the source, which are not always exact repeats. Equal values may be shown once. Where a name gives a salt, the structure may show the parent alone. The whole screen tested about 5,800 compounds, of which about 620 (11%) showed activity.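 The calls were made as follows: active = score above a cut-off or among the top three wells of a plate; in these data no inactive exceeds 0.85.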 The entries are a selection whose mix differs from that of the whole data set.
# Tested on: primary human hepatic stellate cells (donor 1)
# Assay: scaled lipid accumulation score (0 = DMSO-like, 1 = nortriptyline-like); higher = stronger HSC inactivation (lipid re-accumulation), active = hit call of the paper
# Details: 48 h
# [1] = library stock concentration: 3.33 mM
# [2] = library stock concentration: 1 mM
# [3] = library stock concentration: 10 mM
structure (smiles),measurement,setting,value
Nc1ncnc2c1c(-c1cccc(OCc3ccccc3)c1)cn2[C@H]1C[C@H](CN2CCCC2)C1,scaled lipid accumulation score,[1],active: 1.09
CC(C)Cc1ccc(C(C)C(=O)O)cc1 (stereo unspecified) [(?)-Ibuprofen],scaled lipid accumulation score,[2],inactive: 0.029
same,scaled lipid accumulation score,[3],inactive: ≤ -0.031
CC(C)Cc1ccc(C(C)C(=O)O)cc1 (stereo unspecified) [Ibuprofen],scaled lipid accumulation score,[1],inactive: ≤ 0
same,scaled lipid accumulation score,library stock concentration: 9.7 mM,inactive: ≤ -0.006 and inactive: ≤ -0.001
same,scaled lipid accumulation score,[3],inactive: ≤ 0
CC(C)Cc1ccc(C(C)C(=O)O)cc1 (stereo unspecified),scaled lipid accumulation score,[3],inactive: ≤ 0
"COC1=CC(=O)C=C(OC)C1=O [2,6-dimethoxyquinone]",scaled lipid accumulation score,[3],inactive: 0.299
CC(=O)O.N=C(N)N/N=C/c1c(Cl)cccc1Cl [Guanabenz acetate],scaled lipid accumulation score,[3],active: 0.999
O=C(O)CCCC[C@@H]1SC[C@@H]2NC(=O)N[C@@H]21 [Biotin (Vitamin B7)],scaled lipid accumulation score,[1],inactive: ≤ 0
same,scaled lipid accumulation score,[3],inactive: ≤ -0.001
O=C(O)CCCC[C@@H]1SC[C@@H]2NC(=O)N[C@@H]21 [Biotin],scaled lipid accumulation score,,inactive: 0.1
same,scaled lipid accumulation score,[3],inactive: 0.074
CN1CCN(c2cc3c(cc2F)c(=O)c(C(=O)O)cn3-c2ccc(F)cc2)CC1,scaled lipid accumulation score,[3],inactive: ≤ 0
CN(C)CCCCCCOc1ccc(-n2ccnc2)cc1,scaled lipid accumulation score,[2],inactive: 0.054 and inactive: 0.003
"C[C@@]1(O)CCOC(=O)C1 [Mevalonic-D, L acid lactone]",scaled lipid accumulation score,,inactive: ≤ 0
COCC(=O)Nc1c(I)c(C(=O)NCC(O)CO)c(I)c(C(=O)N(C)CC(O)CO)c1I (stereo unspecified) [Iopromide],scaled lipid accumulation score,,inactive: ≤ 0
CCOC(=O)Nc1ccc(NCc2ccc(F)cc2)nc1N [Flupirtine maleate],scaled lipid accumulation score,[1],inactive: ≤ 0
same,scaled lipid accumulation score,[3],inactive: ≤ 0 and inactive: 0.075
CC1COc2c(N3CCN(C)CC3)c(F)cc3c(=O)c(C(=O)O)cn1c23 (stereo unspecified) [Ofloxacin],scaled lipid accumulation score,,inactive: ≤ 0
same,scaled lipid accumulation score,[3],inactive: ≤ 0 and inactive: ≤ -0.055
CCCCC/C=C\C/C=C\C/C=C\C/C=C\CCCCNC(=O)c1ccc(O)cc1,scaled lipid accumulation score,[2],inactive: ≤ 0
O=C(O)/C=C/c1cnc[nH]1 [4-Imidazoleacrylic acid],scaled lipid accumulation score,[3],inactive: ≤ 0
C[C@H](CCC(=O)O)[C@H]1CC[C@H]2[C@@H]3CC[C@@H]4C[C@H](O)CC[C@]4(C)[C@H]3CC[C@]12C [Lithocholic acid],scaled lipid accumulation score,,inactive: ≤ 0
same,scaled lipid accumulation score,[1],inactive: 0.016
same,scaled lipid accumulation score,[3],inactive: ≤ -0.001 and inactive: ≤ 0
COc1ccc(/C=C\c2cc(OC)c(OC)c(OC)c2)cc1O [Combrestatin A4],scaled lipid accumulation score,[2],active: 0.237
C(=C(/CC1)\CCN1C)(/c2c3cccc2)\c4c(cccc4)C=C3.Cl [Cyproheptadine hydrochloride],scaled lipid accumulation score,[3],active: 0.933
CC(=O)SCC(Cc1ccccc1)C(=O)NCC(=O)OCc1ccccc1 (stereo unspecified) [Racecadotril],scaled lipid accumulation score,,inactive: ≤ 0
same,scaled lipid accumulation score,[1],inactive: ≤ 0
same,scaled lipid accumulation score,library stock concentration: 5.2 mM,inactive: ≤ 0
same,scaled lipid accumulation score,[3],inactive: 0.045
CC(=O)SCC(Cc1ccccc1)C(=O)NCC(=O)OCc1ccccc1 (stereo unspecified),scaled lipid accumulation score,[3],inactive: ≤ 0
CCN(CC)Cc1cc(Nc2ccnc3cc(Cl)ccc23)ccc1O.Cl.Cl.O.O [Amodiaquin dihydrochloride dihydrate],scaled lipid accumulation score,,active: 1.22
O=C1OC(OC(=O)c2cccnc2Nc2cccc(C(F)(F)F)c2)c2ccccc21 (stereo unspecified) [Talniflumate],scaled lipid accumulation score,[3],inactive: ≤ -0.001
COC(=O)C1=C(C)NC(C)=C(C(=O)OC(C)C)C1c1cccc2nonc12 (stereo unspecified),scaled lipid accumulation score,library stock concentration: 9.9 mM,inactive: ≤ 0
COC(=O)C1=C(C)NC(C)=C(C(=O)OC(C)C)C1c1cccc2nonc12 (stereo unspecified) [Isradipine],scaled lipid accumulation score,,inactive: 0.044
same,scaled lipid accumulation score,[1],inactive: 0.027
same,scaled lipid accumulation score,[3],inactive: 0.08 and inactive: ≤ -0.001
Cn1c(Nc2ccc(C(F)(F)F)cc2)nc2cc(Oc3ccnc(-c4ncc(C(F)(F)F)[nH]4)c3)ccc21,scaled lipid accumulation score,library stock concentration: 80 uM,inactive: ≤ -0.001
same,scaled lipid accumulation score,library stock concentration: 400 uM,inactive: ≤ -0.003
same,scaled lipid accumulation score,library stock concentration: 2 mM,inactive: 0.037
same,scaled lipid accumulation score,[1],inactive: 0.031
same,scaled lipid accumulation score,[3],inactive: 0.077 and inactive: 0.031
CC1(C)CCC2=C(O1)c1ccccc1C(=O)C2=O [Beta-Lapachone],scaled lipid accumulation score,[1],inactive: 0.47
same,scaled lipid accumulation score,[3],inactive: 0.534
CC1(C)CCC2=C(O1)c1ccccc1C(=O)C2=O [beta-Lapachone],scaled lipid accumulation score,[3],inactive: 0.618
CC1(C)CCC2=C(O1)c1ccccc1C(=O)C2=O [Beta-lapachone],scaled lipid accumulation score,library stock concentration: 20.6 mM,inactive: 0.575
N[C@@H](Cc1cc(-c2ccc(Cl)cc2Cl)cc(CP(=O)(O)O)c1O)C(=O)O,scaled lipid accumulation score,[3],inactive: ≤ -0.006
CC(=O)OCC[N+](C)(C)C [Acetylcholine Chloride],scaled lipid accumulation score,[1],inactive: ≤ 0
same,scaled lipid accumulation score,[3],inactive: ≤ 0
